This passage reports self-cleavage results from the RNAGym collection of RNA variant scans (doi:10.7554/elife.90254).

Read counts are not given, so values of variants with three or more changes are uncertain.

The labels stand for the following.
B1: LINE1-mini (parent)
chain: GGCAGAGCUCAACACAGCGUGGCAAAGUGGCUGUGGCUAGACUGCC

In this series the parent is B1. Kind of series: self-cleavage, relative activity (ratio to wild type); higher = more cleavage; in vitro, sequencing; the parent is a self-cleaving ribozyme.
Take GUCAGAGCUCAACACUUCGUGGCAAAGUGGCUGUGGCAAGAAUGCC [G2U A16U G17U U38A C42A]: the self-cleavage came out at 0.01.

As for GUCAGAGCUCUACACAGCUCGCCAGAGUGGCUGUGGCUAGACUGGC [G2U A11U G19U U20C G22C A25G C45G], the self-cleavage was 0.01.

On to GUCAGAGCUCAACACAGCGUGGCCAAGUGGCAGUGGCUAGACUGUU [G2U A24C U32A C45U C46U], for which the self-cleavage was 0.02.

On to GUCAGAGCUCAACUCAGCGUGGCAAAGUGGCUGUGGAGAUACUGCC [G2U A14U C37A U38G G40U], for which the self-cleavage is 0.03.

With GUCAGAGCUCAUCACAGCGUCGCAAAGUGGCUGUGGCUAGACUUAC [G2U A12U G21C G44U C45A], the self-cleavage was 0.03.

For the variant GUCAGAGCUCACCACAUCGUGGCAAAGUGGCUGUGGCUGGUCUGCC [G2U A12C G17U A39G A41U], the self-cleavage turned out to be 0.01.

In the case of GUCAGAGCUCAACACGGCGUGGCAAAGUGGCUGUGGCAAGACUCCC [G2U A16G U38A G44C], the self-cleavage was 0.03.

In the case of GUCAGAGCUCAACACUGCGUGGCAAAGUGGCUGUGGCGAGACUGCC [G2U A16U U38G], the self-cleavage is 0.01.

Regarding GUCAGAGCUCAACACAGCGUGGCAAAGUGGCUGUGGCUAGCCUGUC [G2U A41C C45U], the self-cleavage turned out to be 0.01.

In the case of GUCAGAGCUCAACUCAGCGUGGCAAAGUGGCUGUGGCCCGACUGCC [G2U A14U U38C A39C], the self-cleavage is 0.01.

Consider GUCAGAGCUCAUCACGGCGUGGAAAAGUCGCGGUGGCUAGACUGCC [G2U A12U A16G C23A G29C U32G], for which the self-cleavage stood at 0.01.

With GUCAGAGCUCAACACAGCGUGGCAACGUGGCUGUGGCUAGACUGGC [G2U A26C C45G], the self-cleavage amounted to 0.16.

Take GUCAGAGCUCAACGCAGCGUGGCAAAGUUGCUGUGGCUAGACUGAC [G2U A14G G29U C45A]: the self-cleavage was determined as 0.04.

As for GUCAGAGCUCAACACAGCGUGGCAGAGUGGCUUUGUCUAGUCUGCC [G2U A25G G33U G36U A41U], the self-cleavage is 0.02.

Regarding GUCAGUGCACAACACAGCCUGGCAAAGUGGCUGUGGAUAGACUGGC [G2U A6U U9A G19C C37A C45G], the self-cleavage turned out to be 0.07.

Consider GUCAGAGCUCAUCCCAGCGUGGCAAAGUUGCUGUGGCUAGACAGCC [G2U A12U A14C G29U U43A], for which the self-cleavage came out at 0.01.

Take GUCAGAGCUCAACCCACCGUGGCAAAGUGGCUGUGGCUAGACUGCA [G2U A14C G17C C46A]: the self-cleavage came to 0.04.

Turning to GUCAGAGCUCCACAUAGCGUGGCAAAGUGGCUGUGGCUAGACUGCC [G2U A11C C15U], the self-cleavage was 0.02.

On to GUCAGAGCUCAACACAGCGUGGCACAGUGGCGGUGGCGAGACUGCC [G2U A25C U32G U38G], for which the self-cleavage came out at 0.01.

On to GUCAGAGCUCACCACAGCGAGGCAAUGUGGCUGUGGCUAGACUGCC [G2U A12C U20A A26U], for which the self-cleavage was determined as 0.01.

As to GUCAGAGCUCAACACAGCGUGGCCAAGUGGCUGGGGAUAGACUGCC [G2U A24C U34G C37A], the self-cleavage was determined as 0.

Consider GUCAGAGCUCAACACAGCGUGGCAAUGUGGAUGUGGCUAGACUGCC [G2U A26U C31A], for which the self-cleavage was determined as 0.03.

Regarding GUCAGAGCUCUAAACAGCGUGGCAAAGUGGCUGUGGCUAGACUGCC [G2U A11U C13A], the self-cleavage came out at 0.

Turning to GUCAGUGCUCAACAGAGCGUGGCAAAGUGGCUGUGGCUAGACUGCC [G2U A6U C15G], the self-cleavage came to 0.

On to GUCAGAGCUCAGAACAGCGUGGCAAAGAGGCUGUGGCUAGACUGCC [G2U A12G C13A U28A], for which the self-cleavage was determined as 0.04.

As to GUCAGAGCUCAUCAAAGCGUGGAAAAGUGGCUGUGGCUAGAUUGCC [G2U A12U C15A C23A C42U], the self-cleavage stood at 0.11.

In the case of GUCAGAGCUCAACACUGCGUGGCAAAGUGGCUGUUGCUAGACUGCA [G2U A16U G35U C46A], the self-cleavage was 0.03.

In the case of GUCAGAGCUCAGCACAGCGAGGCGAAGUGGCUUUGGCUAGACUGCC [G2U A12G U20A A24G G33U], the self-cleavage stood at 0.02.

In the case of GUCAGAGCUCAACUCAGCGUGGCAAUGUGGCUGUGGCUAGAUCGCC [G2U A14U A26U C42U U43C], the self-cleavage is 0.1.

Consider GUCAGAGCUCCACGCAACGUGGCAAAGUGGCUUUGGCUAGACUGCC [G2U A11C A14G G17A G33U], for which the self-cleavage turned out to be 0.

As for GUCAGAGCUCAACACAGCGUGGCAAAGUGGCUGUGGCUGGGCUGCC [G2U A39G A41G], the self-cleavage is 0.01.

Consider GUCAGAGCUCGACACAGCGAGGCAAAGUGACUGUGGCUAGACUGCC [G2U A11G U20A G30A], for which the self-cleavage turned out to be 0.01.

Take GUCAGAGCUCAACUCAGCGUGGCAAGGUGGCUGUGGCUAGACUGCC [G2U A14U A26G]: the self-cleavage was 0.08.

Regarding GUCAGUGCGCAACACAGCGUGGCAAAGUGGCUGUCGCUAGACUGCC [G2U A6U U9G G35C], the self-cleavage stood at 0.07.

In the case of GUCAGAGCUCAACACAGCGUGGCACAGUGACUGUGGCUAGACUCCC [G2U A25C G30A G44C], the self-cleavage is 0.02.

As for GUCAGAGCUCAACACAGCGUGGCAACGUAGCAGUGGCUAGACUGCC [G2U A26C G29A U32A], the self-cleavage is 0.02.

As to GUCAGAGCUCAACCCAGCGUGGCGAAGUGGUAGUGGGGAGACUGCC [G2U A14C A24G C31U U32A C37G U38G], the self-cleavage stood at 0.

Regarding GUCAGAGCUCAUCACAGGGUUGGAAAUUGGCUAUGGCUAGACUGCC [G2U A12U C18G G21U C23G G27U G33A], the self-cleavage came to 0.01.

Take GUCAGAGCUCAGCACAACGUGGCAAAGUGGGUGUGGCUAGAUUGCC [G2U A12G G17A C31G C42U]: the self-cleavage came out at 0.49.

On to GUCAGAGCUCAACACUGCCUGGCAAAGUGGCUGUGGCUAGACUGCC [G2U A16U G19C], for which the self-cleavage turned out to be 0.02.

Consider GUCAGAGCUCAACACAGCGUGGCACAGUGGCUGUGGCUAGACUGCA [G2U A25C C46A], for which the self-cleavage turned out to be 0.07.

Take GUCAGAGCUCAACACAGCGUGGCGAAGUGGCUGUGGCUAGACCACC [G2U A24G U43C G44A]: the self-cleavage was determined as 0.04.

In the case of GUCAGAGCUCAACACUGCGUGGCAAUGUGGCUGUUGCUAGACUGCC [G2U A16U A26U G35U], the self-cleavage came out at 0.

As to GUCAGAGCUCAACGCAGCGUGGCAAAGUAGCUGUUGCUGGACUGCC [G2U A14G G29A G35U A39G], the self-cleavage worked out at 0.13.

Turning to GUCAGAGCUCAACACAGCGUGGCAAAGUGGCUGUGGCUAGCCUGCA [G2U A41C C46A], the self-cleavage is 0.1.

Take GUCAGAGCUCAACACUGCGUGGCAAAGUGGCUGUGGUUAGAAUGGC [G2U A16U C37U C42A C45G]: the self-cleavage came out at 0.07.

Regarding GUCAGAGCUCGACACAGCUUGGCAAAGUGGCUUUGGCUAGACUGCC [G2U A11G G19U G33U], the self-cleavage worked out at 0.01.

For GUCAGAGCUCGACACAGCGUGGCAAAGUGGCUGUGGCUAGACUGGC [G2U A11G C45G], the self-cleavage was 0.02.

As to GUCAGAGCUCUCCACAGCGUGGCAAAGUGGCGGUGGCUAAACUGCU [G2U A11U A12C U32G G40A C46U], the self-cleavage was found to be 0.

As to GUCAGUGCUCAACACCGCGUGGCAAAGUGGCUGUGGCUAGAAUGCC [G2U A6U A16C C42A], the self-cleavage came out at 0.09.

Take GUCAGAGCUCGACACAGCGUUGCAAAGUGGUUGUGCCUAGACUGCC [G2U A11G G21U C31U G36C]: the self-cleavage amounted to 0.01.

With GUCAGAGCUCAACCCAGCGUGCCAAAGUGGCGGUGGCUAGGCUGCC [G2U A14C G22C U32G A41G], the self-cleavage came out at 0.02.

Turning to GUCAGAGCUCAUAACAGCGUGGCAAAGUGGCUGUGGCUAAACUGGC [G2U A12U C13A G40A C45G], the self-cleavage was determined as 0.02.

Turning to GUCAGAGCUCAACACAGCGUGGCUAAGUGGUUGUGGCUAGACUGCC [G2U A24U C31U], the self-cleavage is 0.02.

In the case of GUCAGAGCUCAACACAGCGUGGCUAAGUGGAUGUGGCUAGACUGCC [G2U A24U C31A], the self-cleavage is 0.05.

Turning to GUCAGAGCUCAACACAGCGUGGCUAAGUGGCUGUGGCUAUCCUGCG [G2U A24U G40U A41C C46G], the self-cleavage was found to be 0.01.
